Test results as given in patent US20200010850A1, “EFFICIENT CELL FREE PRODUCTION OF PAPI[…] […] VECTORS” (The USA, as represeented by the Secretary, Dept. of Health …, priority 2017, published 2020).

Columns and labels:
HPV45 PsVs = assay: Heparin, serum neutralization and entry inhibitor assay on HPV45 PsVs (Luc/GFP plasmid); format: cell-based; conditions: 293TT cells; 10 μM dec-RVKR-cmk, 20 mM NH4Cl, 300 nM compound XXI, 10 μM CsA; 72 h
HPV16 PsVs = assay: Heparin, antibody neutralization and entry inhibitor assay on HPV16 PsVs (Luc/GFP plasmid); format: cell-based; conditions: 293TT cells; 10 μM dec-RVKR-cmk, 20 mM NH4Cl, 300 nM compound XXI, 10 μM CsA; 72 h

Molecule | inhibition of infection by entry inhibitors, defined versus standard PsVs (HPV45 PsVs) | inhibition of infection by entry inhibitors, defined versus standard PsVs (HPV16 PsVs)
Cl.N [NH4Cl] | inhibited defined-produced and standard PsVs infection of 293TT to the same extent | inhibited defined-produced and standard PsVs infection of 293TT to the same extent
C[C@H](NC(=O)Cc1cc(F)cc(F)c1)C(=O)N[C@H]1N=C(c2ccccc2)c2ccccc2N(C)C1=O [compound XXI, (S,S)-2-[2-(3,5-Difluorophenyl)-acetylamino]-N-(1-methyl-2-oxo-5-phenyl-2,3-dihydro-1H-benzo[e][1,4]diazepin-3-yl)-propionamide] | inhibited defined-produced and standard PsVs infection of 293TT to the same extent | inhibited defined-produced and standard PsVs infection of 293TT to the same extent
Decanoyl-RVKR-chloromethilketone [dec-RVKR-cmk] |  | inhibited defined-produced and standard PsVs infection of 293TT to the same extent
